Data from PubChem BioAssay AID504706 (National Center for Advancing Translational Sciences (NCATS), 2011).
Several values for one entry are separate records, joined by “and”; a condition that tells them apart may be missing. Equal values may be shown once. About 200 (0.062%) of roughly 320,000 compounds were called active. Inconclusive results, whose numbers are uncertain, are shown with a selection of clear calls. Calls follow the shape of the dose curve; as a rule, active = well fitted activation curve with a large enough effect; inconclusive = small, poorly fitted or top-dose-only effect; inactive = no such curve, though single readings can be large or run the other way. Potencies of inconclusive entries are doubtful fits and often do not repeat.

test: qHTS assay for re-activators of p53 using a Luc reporter; settings: H1299 p53-A138V BP100-luciferase reporter, luminescence, 24 h; series mostly up to 92.2 µM; also: nearly all actives have a fitted effect of over 45% in size
How it was run: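 H1299 (p53-null), stable ts p53-A138V + BP100-Luc; 1000 cells/well, Opti-MEM/10% FBS; cpd 4 pt, 1:5; 24 h, 37 deg C, 5% CO2; detection reagent 10 min RT; luminescence.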
Potency is read from the fitted curve at half-maximal effect; tags tell the direction and shape of the fitted curve.

**Q.** With COC(=O)N/N=C/c1ccc([N+](=O)[O-])s1 as the compound, how does the Potency read?
**A.** inconclusive: 70.8 µM [activator, single point]

**Q.** Which Potency does the source give for COc1cc2ncnc(NCc3ccccc3C)c2cc1OC here?
**A.** inactive

**Q.** Which Potency does the source give for Cc1csc(NC(=O)C2CSC3(C)CCC(=O)N23)n1 (centres undefined) here?
**A.** inactive

**Q.** Which Potency does the source give for Cc1ccc2nc(-c3ccc(NS(=O)(=O)c4ccccc4)cc3)sc2c1 here?
**A.** inconclusive: 10 µM [activator, full curve, poor fit]

**Q.** For CN1CCCC(OC(=O)c2ccc3c(c2)OCCO3)C1 (centres undefined), which Potency is on record?
**A.** inconclusive: 11.2 µM [activator, partial curve, poor fit]

**Q.** For Oc1c(CN2CCN(c3ccc(F)cc3)CC2)cc(Cl)c2cccnc12, which Potency is on record?
**A.** inconclusive: 20 µM [activator, full curve, poor fit]

**Q.** Which Potency does the source give for COc1cc([C@@H]2OC[C@@H]3[C@H]2CO[C@@H]3c2ccc3c(c2)OCO3)ccc1O here?
**A.** inactive

**Q.** For COc1ccc(NC(=O)CSc2nc(SC)ns2)cc1, which Potency is on record?
**A.** inconclusive: 10 µM [activator, full curve, poor fit]

**Q.** Which Potency does the source give for CCOC(=O)c1sc(NC(=O)c2ccc(S(=O)(=O)N(C)C)cc2)nc1C here?
**A.** inactive

**Q.** With COc1cccc(-c2nn(-c3ccccc3)cc2/C=C(/NC(=O)c2ccccc2)C(=O)O)c1 as the compound, how does the Potency read?
**A.** inactive

**Q.** For COc1cccc(/C=C/C(=O)NNC(=O)c2ccncc2)c1OC, which Potency is on record?
**A.** inconclusive: 11.2 µM [activator, full curve]

**Q.** With O=C(NOCc1ccccc1)c1ccccc1 as the compound, how does the Potency read?
**A.** inconclusive: 4.47 µM [activator, partial curve, poor fit] and inconclusive: 56.2 µM [activator, partial curve, poor fit]

**Q.** With COc1ccc(-c2c3c(cc(C)[n+]2[O-])oc2ccc(OC)cc23)cc1 as the compound, how does the Potency read?
**A.** inactive

**Q.** For COc1ccc(CNC(=O)c2ccc(N3CCCC3=O)cc2)cc1, which Potency is on record?
**A.** inconclusive: 70.8 µM [activator, partial curve, poor fit]

**Q.** For CCN1CCN(CCNC(=O)CSCc2nc(-c3ccc(OC)c(OC)c3)oc2C)CC1, which Potency is on record?
**A.** inactive

**Q.** Which Potency does the source give for CC(=O)c1ccc2c(c1)CC(C)C(=O)N2C (centres undefined) here?
**A.** inconclusive: 35.5 µM [activator, single point]

**Q.** With COc1cccc(C(=O)NC(C)CCc2ccccc2)c1 (centres undefined) as the compound, how does the Potency read?
**A.** inactive

**Q.** For Cc1cc(/C=N/NC(=O)c2cccc(F)c2)c(C)n1-c1ccccc1, which Potency is on record?
**A.** inconclusive: 10 µM [activator, partial curve, poor fit]

**Q.** With Cc1ccc(Cc2cnc(NC(=O)c3cccs3)s2)cc1 as the compound, how does the Potency read?
**A.** inconclusive: 79.4 µM [activator, single point]

**Q.** Which Potency does the source give for c1ccc(Nc2nc3ccccc3o2)cc1 here?
**A.** inconclusive: 56.2 µM [activator, partial curve, poor fit]

**Q.** With Cc1cc(OCC(=O)N2CCCCCC2)ccc1[N+](=O)[O-] as the compound, how does the Potency read?
**A.** inconclusive: 6.31 µM [activator, partial curve, poor fit]

**Q.** For CC(C)(O)[C@H]1Cc2cc3ccc(=O)oc3cc2O1, which Potency is on record?
**A.** inconclusive: 7.08 µM [activator, partial curve, poor fit]

**Q.** With Cc1nc2c(-c3ccc(F)cc3)cnn2c(N)c1-c1ccc(F)cc1 as the compound, how does the Potency read?
**A.** inconclusive: 2.82 µM [activator, full curve, poor fit]

**Q.** Which Potency does the source give for Cc1ccc(NC(=O)c2noc3c2CCCCC3)cc1C here?
**A.** inconclusive: 44.7 µM [activator, partial curve, poor fit]

**Q.** Which Potency does the source give for CCCOc1ccc(-c2nc(C#N)c(N3CCN(CC)CC3)o2)cc1 here?
**A.** inactive

**Q.** For CNC(=S)N/N=C(\C)c1ccc(Cl)s1, which Potency is on record?
**A.** inactive

**Q.** For O=C(CSc1nc(-c2ccc(F)cc2)cs1)N1CCOCC1, which Potency is on record?
**A.** inconclusive: 12.6 µM [activator, partial curve, poor fit]

**Q.** For COc1ccccc1OCC(=O)Nc1nc2c(s1)CCCC2, which Potency is on record?
**A.** inconclusive: 28.2 µM [activator, partial curve, poor fit]

**Q.** For COc1ccc(C(=O)COC(=O)c2ccn(C)n2)cc1, which Potency is on record?
**A.** inconclusive: 10 µM [activator, full curve]

**Q.** For CC(C)OC(=O)c1ccc(COc2ccc3ccc(=O)oc3c2)o1, which Potency is on record?
**A.** inconclusive: 50.1 µM [activator, partial curve, poor fit]

**Q.** With CC(C)C(=O)Nc1ccc2nn(-c3ccc(F)cc3)nc2c1 as the compound, how does the Potency read?
**A.** inactive

**Q.** Which Potency does the source give for Cc1ccc(-c2cc(C(=O)N/N=C/c3c(C)nn(-c4ccccc4)c3C)n[nH]2)s1 here?
**A.** inconclusive: 11.2 µM [activator, partial curve, poor fit]

**Q.** With COc1ccc(/C=C/C(=O)OCC(=O)c2ccccc2F)cc1 as the compound, how does the Potency read?
**A.** inconclusive: 12.6 µM [activator, full curve, poor fit]

**Q.** With Oc1ccc(Cl)cc1CNc1ccc(Br)cn1 as the compound, how does the Potency read?
**A.** inconclusive: 50.1 µM [activator, partial curve, poor fit]

**Q.** With COc1ccc(C(=O)N=c2nc3ccccn3s2)cc1 as the compound, how does the Potency read?
**A.** inconclusive: 2.51 µM [activator, partial curve, poor fit]

**Q.** With C[C@H](Nc1ccc(C(F)(F)F)cc1[N+](=O)[O-])C(=O)O as the compound, how does the Potency read?
**A.** inconclusive: 39.8 µM [activator, partial curve, poor fit]

**Q.** With N/C(=N\OC(=O)COc1ccc(Cl)cc1Cl)c1cccnc1 as the compound, how does the Potency read?
**A.** inconclusive: 31.6 µM [activator, full curve]

**Q.** Which Potency does the source give for CCCCNC(=O)N1CCc2ccccc2C1 here?
**A.** inconclusive: 50.1 µM [activator, partial curve, poor fit]

**Q.** With CCOC(=O)Cc1csc(NC(=O)Nc2cccc(Cl)c2)n1 as the compound, how does the Potency read?
**A.** inactive

**Q.** For CCOC(=O)N1CCN(C(=O)CSc2cc(C)nc3c(-c4ccccc4OC)c(C)nn23)CC1, which Potency is on record?
**A.** inconclusive: 10 µM [activator, single point]

**Q.** With S=C(c1ccc(-c2ccc(Cl)cc2Cl)o1)N1CCCCC1 as the compound, how does the Potency read?
**A.** inconclusive: 7.08 µM [activator, partial curve, poor fit]

**Q.** For O=C(O)c1cc(N/N=C/c2ccc(-c3ccccc3)cc2)ccc1Cl, which Potency is on record?
**A.** inconclusive: 20 µM [activator, partial curve, poor fit]

**Q.** With COc1cc(OC)cc(C(=O)Oc2c(CN3CCOCC3)cc(Cl)c3cccnc23)c1 as the compound, how does the Potency read?
**A.** inactive

**Q.** With O=c1c2ccc(Cl)cc2[nH]c(=S)n1CCC1=CCCCC1 as the compound, how does the Potency read?
**A.** inconclusive: 56.2 µM [activator, partial curve, poor fit]
